Assay results published in PubChem BioAssay AID602310 (National Center for Advancing Translational Sciences (NCATS), 2012).
Out of some 410,000 compounds screened, about 310 (0.076%) were called active. Inconclusive means that the source gave no clear call. Such entries were picked first, then a sample of the others. The call rests on the fitted dose curve; in most records, active means well fitted curve in the direction sought with a large enough effect; inconclusive means small, poorly fitted or top-dose-only effect; inactive means flat fitted curve, though single readings scatter. Potencies of inconclusive entries are doubtful fits and often do not repeat.

These compounds were tested against DNA dC->dU-editing enzyme APOBEC-3G (Homo sapiens) (UniProt Q9HC16) (assay: qHTS for Inhibitors of Vif-A3G Interactions: qHTS). Conditions: HeLa A3G-eYFP + Vif (tagged APOBEC3G with the HIV-1 protein that degrades it), YFP fluorescence, overnight; series mostly up to 46.1 µM.
UniProt Q9HC16, sequence (Q9HC16 whole entry, looked up): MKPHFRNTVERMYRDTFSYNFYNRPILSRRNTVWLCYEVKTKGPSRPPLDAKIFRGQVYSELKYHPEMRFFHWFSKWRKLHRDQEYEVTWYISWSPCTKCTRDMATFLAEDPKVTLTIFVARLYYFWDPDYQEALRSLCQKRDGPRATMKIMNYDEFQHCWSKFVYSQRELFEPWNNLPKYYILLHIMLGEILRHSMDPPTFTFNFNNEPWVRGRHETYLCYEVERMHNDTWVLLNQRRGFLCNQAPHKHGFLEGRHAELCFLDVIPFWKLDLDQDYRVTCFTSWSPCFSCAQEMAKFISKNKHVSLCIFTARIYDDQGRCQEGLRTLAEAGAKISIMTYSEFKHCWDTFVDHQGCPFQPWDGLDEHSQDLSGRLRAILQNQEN
How it was run: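 Read-out is eYFP fluorescence (Ex 488/Em 500-530) from Vif-expressing HeLa A3G-eYFP cells; more signal means A3G escaped Vif-mediated degradation. Cells plated overnight, compound pinned in, incubated overnight at 37 deg C.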
Further: nearly all actives have a fitted effect of over 60% in size.
Potency means the concentration at half of the fitted maximal effect; tags describe the fitted curve by direction and shape.

Compound	Potency
COc1ccc(S(=O)(=O)N2N=C(C)Oc3ccccc3C2=O)cc1	inconclusive: 5.01 µM [inhibitor, partial curve]
Cc1cccc(NC(=O)C2CCC(CNS(=O)(=O)c3ccc(Br)s3)CC2)c1 (stereo not drawn)	inactive
O=c1[nH]c2ccccc2nc1/C=C(\O)c1cccs1	inconclusive: 2.82 µM [inhibitor, partial curve, poor fit]
CS(=O)(=O)c1ccc(C(=O)OCc2nnc(-c3ccc(Cl)cc3)o2)cc1[N+](=O)[O-]	inactive
CN1C(=O)C2(C(C#N)=C(N)N(c3cc(Cl)cc(Cl)c3)C3=C2C(=O)CCC3)c2ccccc21 (stereo not drawn)	inactive
Cc1cc(/C=C2/SC(=S)N(c3cccc(Cl)c3)C2=O)c(C)n1-c1cccnc1	inactive
Cc1ccc(NC(=O)/C(C#N)=C/c2ccc(C)s2)c(C)c1	active: 11.2 µM
COc1cccc(-c2nnc(SCC(=O)Nc3cc(C)on3)o2)c1	inconclusive: 3.98 µM [inhibitor, single point]
COc1ccccc1CNC(=O)CC(c1ccc(C)cc1)N1Cc2ccccc2C1=O (stereo not drawn)	inactive
COc1ccc(-c2ccnc(-c3ccc(O)cc3)n2)cc1	inconclusive: 0.794 µM [inhibitor, full curve, poor fit]
CCN1CCN(c2cc(C(C)C)nc3c(-c4ccccc4)c(C)nn23)CC1	inconclusive: 35.5 µM [inhibitor, single point]
O=[N+]([O-])c1ccc(CSc2ncnc3ccccc23)cc1	inactive
Cc1nnc(NCc2n[nH]c(=O)c3ccccc23)c2ccccc12	inconclusive: 25.1 µM [inhibitor, single point]
Nc1c(C(=O)Nc2ccc(S(=O)(=O)N3CCCC3)cc2)sc2nc3ccc(OC(F)(F)F)cc3cc12	inconclusive: 11.2 µM [inhibitor, partial curve, poor fit]
COc1ccccc1CNS(=O)(=O)c1ccc(-c2cnc(C3CC3)o2)cc1	inconclusive: 1.41 µM [inhibitor, partial curve, poor fit]
CCOC(=O)c1ccc(S(=O)(=O)Nc2nc3cc(S(=O)(=O)NC4=NCCCCC4)ccc3s2)cc1	inactive
CCCOc1ccc(-c2nonc2NC(=O)c2cc(OC)c(OC)c(OC)c2)cc1OCCC	inactive
CCOC(=O)c1nnn(-c2nonc2-n2cccc2)c1CCl	inactive
CSc1nc(Cl)cc(Nc2ccc(O)cc2)n1	inconclusive: 25.1 µM [inhibitor, single point]
COc1ccccc1N1CCN(C(=O)c2ccc(Cl)c(S(=O)(=O)NCc3ccco3)c2)CC1	inconclusive: 6.31 µM [inhibitor, full curve, poor fit]
COc1ccc(NC(=O)n2ncc3c(C)cccc32)cc1	inconclusive: 4.47 µM [inhibitor, partial curve, poor fit]
C/C(=N/NC(=O)c1ccc(C)nc1)c1ccc2c(c1)CCCC2	inconclusive: 7.08 µM [inhibitor, partial curve, poor fit]

Compound	Potency
CNC(=S)N/N=C(\C)c1ccc(Cl)c(Cl)c1	inactive
COc1cccc(/C(O)=C/c2nc3ccc(C(=O)NCCc4ccc(Cl)cc4)cc3[nH]c2=O)c1	inconclusive: 3.98 µM [inhibitor, single point]
Cc1ccc(-c2nn3c(C)nnc3s2)cc1NC(=O)c1ccc(-c2cccc(Cl)c2)o1	inconclusive: 35.5 µM [inhibitor, partial curve, poor fit]
Oc1ccccc1C(Nc1nccs1)c1ccc2cccnc2c1O (stereo not drawn)	inconclusive: 22.4 µM [inhibitor, single point]
Cc1cccc(N2CCN(C(=O)c3cc(C)oc3C)CC2C)c1 (stereo not drawn)	inconclusive: 20 µM [inhibitor, single point]
CN(C)c1ccc(/C=C/c2nccc3ccccc23)cc1	active: 11.2 µM
Cc1ccc(N(Cc2cc(=O)[nH]c3ccccc23)C(=O)CCl)cc1	inconclusive: 35.5 µM [inhibitor, single point]
N#C/C(=C\c1cc([N+](=O)[O-])ccc1Cl)C(N)=O	inconclusive: 35.5 µM [inhibitor, single point]
CC(C)CC(=O)NC1(C(F)(F)F)C(=O)Nc2c1c(=O)[nH]c(=O)n2-c1ccccc1 (stereo not drawn)	inactive
O=C(Nc1cccc(C(F)(F)F)c1)c1cc(-c2ccco2)on1	inactive
CCOc1ccc(NC(=O)c2ccco2)c([N+](=O)[O-])c1	inconclusive: 3.55 µM [inhibitor, partial curve, poor fit]
COc1ccccc1N1C(C)=CC(=C(C#N)c2nc3ccccc3s2)C=C1C	inconclusive: 17.8 µM [inhibitor, single point]
N#C/C(=C(/O)CCl)c1nc2ccccc2[nH]1	inconclusive: 35.5 µM [inhibitor, single point]
C#CCN(C[C@@H]1[C@@H](OC(=O)NC2CCCC2)[C@@H](OC(=O)NC2CCCC2)Cn2c(=O)ccc(=O)n21)S(=O)(=O)c1ccc(C)cc1	inconclusive: 11.2 µM [inhibitor, single point]
COc1cccc(Oc2ccc(C(F)(F)F)cc2NC(=O)CCc2nc3ccccc3c(=O)[nH]2)c1	inconclusive: 31.6 µM [inhibitor, single point]
O=C(CCl)Nc1ccccc1C(=O)NCc1ccccc1	inconclusive: 35.5 µM [inhibitor, single point]
CCCc1cnc(Nc2nc(C(N)Cc3ccc(C(F)(F)F)cc3)cs2)nc1 (stereo not drawn)	inactive
Cc1ccc(-c2csc(-c3cc4c([nH]c3=O)CC(c3ccccc3)CC4=O)n2)cc1 (stereo not drawn)	inconclusive: 20 µM [inhibitor, partial curve, poor fit]
COc1ccc2[nH]c3c(NCCN(C(C)C)C(C)C)ncnc3c2c1	inactive
COc1ccc(CCCNC(=O)C2Cc3c(-c4cccc(C(N)=O)c4)ccnc3O2)cc1 (stereo not drawn)	inconclusive: 12.6 µM [inhibitor, partial curve, poor fit]
O=C(C[N+]1(CCc2ccccc2)CCOCC1)c1ccccc1	inactive
